Source: PubChem BioAssay AID1508624 (National Center for Advancing Translational Sciences (NCATS), 2021)
Out of some 48,000 compounds screened, about 120 (0.25%) were called active. Another 4% or so got no clear call; they are omitted. Calls come from the whole dose curve; as a rule, active = well fitted activation curve with a large enough effect; inconclusive = small, poorly fitted or top-dose-only effect, or another doubt; inactive = no such curve, though single readings can be large or run the other way. Some of the results follow.

Test: Primary qHTS for Identification of Small Molecule Activators of Huntingtin-Antisense Promoter Activity; note: nearly all actives have a fitted effect of over 55% in size
Conditions: HEK293 HTT-AS promoter firefly luciferase reporter, 24 h; series mostly up to 57.5 µM; activity change, positive = activation: at the top concentration
How it was run: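 HEK293 Fluc reporter, 2,500 cells/well, 24 h pre-culture; cpds up to 57.5 uM final, 24 h 37 degrees C; Dual-Glo, 10 min RT; normalized vehicle = 0%, zero RLU = -100%.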

| SMILES | activity change, positive = activation |
| --- | --- |
| CCc1ccc(NS(=O)(=O)c2c(-c3ccccc3)csc2C(=O)OC)cc1 | inactive: -30.7% |
| Cc1cc(NCc2ccc(Cl)cc2)n2cnnc2n1 | inactive: -70.1% |
| COc1ccccc1N(CC(=O)Nc1cc(C)cc(C)c1)S(C)(=O)=O | inactive: -15.2% |
| O=C(Nc1nnc(S(=O)(=O)N2CCCCCC2)s1)c1ccccc1 | inactive: 23.4% |
| CN(Cc1ccco1)S(=O)(=O)c1nnc(NC(=O)c2ccccc2)s1 | inactive: 27% |
| CCc1cccc(NC(=O)Cn2ccn3nc(-c4ccc(OC)c(OC)c4)cc3c2=O)c1 | inactive: -1.48% |
| Cc1ccccc1NC(=O)Cn1cc(S(=O)(=O)N2CCCC2)c(S(=O)(=O)N2CCCC2)c1 | inactive: 10.7% [at 11.5 µM, percent change from vehicle, -100% = no light] |
| CC1=C(C(=O)Nc2ccccc2)C(c2ccccn2)n2nc(SCc3ccccc3Cl)nc2N1 (configuration not stated) | inactive: -4.32% |
| CCOc1ccc(NC(=O)c2nnn(-c3ccc(F)c(Cl)c3)c2C)cc1 | inactive: -18.5% |
| COC(=O)c1ccc(Oc2nc3c(c(=O)n(C)c(=O)n3C)n2Cc2ccc(Cl)c(Cl)c2)cc1 | inactive: -9.07% |
| COc1ccc(NC(=O)c2oc3ccccc3c2NC(=O)C23CC4CC(CC(C4)C2)C3)cc1 | inactive: -19.1% |
| COc1ccc(OC)c(NC(=O)c2c(NCc3ccc(N(C)C)cc3)sc3c2CCCC3)c1 | inactive: -15.7% |
| COc1ccc(S(=O)(=O)N(CC(=O)Nc2ccc3c(c2)OCO3)c2ccc(C)cc2)cc1 | inactive: -24.6% |
| O=C(NCc1ccccc1Cl)c1ccc(NC(=O)N2CCSc3ccccc32)cc1 | inactive: -11.5% |
| COc1cc(OC)cc(C(=O)Nc2ccc3c(c2)n(C)c(=O)c(=O)n3C)c1 | inactive: -11.6% |
| Cc1ccc(OCc2cc(=O)n3c4c(sc3n2)CCCC4)cc1C | inactive: -2.37% |
| Cc1ccc(C)c(Cn2c(=O)n(-c3ccc(F)cc3)c(=O)c3sc4ccccc4c32)c1 | inactive: -3.64% |
| Clc1cccc(-n2ncc3c(Nc4ccc5c(c4)OCCO5)ncnc32)c1 | inactive: 3.11% |
| COc1ccc(N2CCN(C(=O)Cn3c(-c4cccs4)cc4ccccc43)CC2)cc1 | inactive: -14.7% |
| CC(=O)N1CCc2cc(S(=O)(=O)NC(Cc3ccccc3)C(=O)Nc3ccc(C)cc3C)ccc21 (configuration not stated) | inactive: -23.6% |
| O=C(CSc1nc2ccsc2c(=O)n1Cc1ccccc1F)NCc1ccccc1Cl | inactive: -34.2% |
| O=C(Nc1cccc(Cl)c1Cl)c1cc(S(=O)(=O)N2CCCc3ccccc32)ccc1F | inactive: -27.9% |
| CCC(=O)N1CCCc2cc(S(=O)(=O)N3CCC(C(=O)Nc4cccc(Cl)c4)CC3)ccc21 | inactive: -31.1% |

| SMILES | activity change, positive = activation |
| --- | --- |
| Cc1ccc(C(=O)Nc2ccc3oc(-c4cc(Br)ccc4Cl)nc3c2)cc1 | inactive: -2.5% [at 11.5 µM, percent change from vehicle, -100% = no light] |
| O=c1cc2nc(-c3ccccc3)nc(SCCOc3ccc(Cl)cc3)n2[nH]1 | inactive: -22.9% |
| CCOC(=O)c1cnc2c(C)cc(C)cc2c1Nc1ccccc1OCC | inactive: 21.1% |
| COc1ccc(C(=O)Nc2ccc3oc(-c4cc(Cl)ccc4Cl)nc3c2)cc1Br | inactive: -5.04% |
| CCCN(C(=O)Cn1ncc2c([nH]c3ccccc32)c1=O)c1ccc(F)cc1 | inactive: -41.5% |
| COc1ccc2c(c1)c(=O)c(S(=O)(=O)c1ccccc1)cn2CC(=O)Nc1ccc2c(c1)OCO2 | inactive: 2.26% |
| CCOC(=O)C1CCCN(C(=O)c2ccc3c(c2)N(Cc2ccccc2F)C(=O)c2ccccc2S3=O)C1 (configuration not stated) | inactive: -16.6% |
| COc1ccc(CCNC(=O)CCn2c(=O)c3ccccc3n(CC(=O)Nc3cc(Cl)ccc3C)c2=O)cc1OC | inactive: -6.69% |
| CC(=O)c1cccc(NC(=O)CCCSc2nc(-c3ccco3)cc(C(F)(F)F)n2)c1 | inactive: -8.33% |
| COC(=O)C1C2CC3c4[nH]c5cc(OC)ccc5c4CCN3CC2CC(OC(=O)c2cc(OC)c(OC)c(OC)c2)C1OC (configuration not stated) | inactive: -6.75% |
| CCc1ccccc1NC(=O)Nc1cc(C(=O)NCc2ccccc2OC)ccc1N1CCCC1 | inactive: -1.33% |
| CCOC(=O)C(C)(C)Oc1ccc(Cl)cc1 | inactive |
| COc1ccc(NC(=O)CN2C(=O)C(c3ccc(C)cc3)=NC23CCCCCC3)cc1Cl | inactive: -24.7% |
| Cc1ccc(NC(=O)c2ccc(CNS(=O)(=O)c3ccc4c(c3)C(C)(C)C(=O)N4C)cc2)cc1 | inactive: -33.8% |
| COc1cccc(-c2nc(SCC(=O)NCC3CCCO3)c(-c3ccc(Cl)cc3)[nH]2)c1 (configuration not stated) | inactive: -28.4% |
| CN(C)CCNC(=O)C(=O)NCC(c1cccnc1)N1CCN(c2ccccc2)CC1 (configuration not stated) | inactive: -7.53% |
| CN1CCN(C(=O)c2ccc3c(c2)N(Cc2ccc(Cl)cc2)C(=O)c2ccccc2S3(=O)=O)CC1 | inactive: -16.2% |
| O=C(c1ccccc1Br)N(Cc1ccccc1F)C1CCS(=O)(=O)C1 (configuration not stated) | inactive: -3.1% |
| CCC(C)NC(=O)CSCc1nc(-c2ccc(C)cc2)oc1C (configuration not stated) | inactive: -18.6% |
| Cc1cccc(CC(=O)NCCc2sc3nc(-c4ccc(F)cc4)nn3c2C)c1 | inactive: -3.05% |
| CCOc1ccc(CCNC(=O)c2ccc(-c3nc(CSc4ccccc4)c(C)o3)cc2)cc1 | inactive: 16.6% |
| COc1ccc(OCC(=O)N(Cc2ccc(C)o2)C2CCS(=O)(=O)C2)cc1 (configuration not stated) | inactive: -3.45% |
| CCc1ccc(N(CC)C(=O)c2sc3nc4n(c(=O)c3c2C)CCCC4)cc1 | inactive: -18.7% |

| SMILES | activity change, positive = activation |
| --- | --- |
| COc1ccccc1NC(=O)CN1C(=O)CCSc2ccccc21 | inactive: -13.7% |
| Cc1ccc(Cl)cc1NC(=O)CSCc1cnn(-c2ccccc2)c1-n1cccc1 | inactive: -22.4% |
| O=C(Cn1c(=O)ccc2cc(S(=O)(=O)N3CCCC3)ccc21)Nc1ccc(Cl)cc1 | inactive: -33.3% |
| NS(=O)(=O)c1cc(-c2nn[nH]n2)c(NCc2cccs2)cc1Cl | inactive: 2.17% |
| Cc1cccc(NS(=O)(=O)c2ccc3c(c2)CCN3C(=O)C2CC2)c1C | inactive: -35% |
| CCN(C(=O)c1cn(C)c(=O)c2ccccc12)c1cccc(C)c1 | inactive: -19.1% |
| Cn1nnnc1SCCCNCc1ccccc1OCc1ccc(F)cc1 | inactive: -19.8% |
| O=C1CCCc2c(O)cccc21 | inactive: 4.18% |
| COC(=O)c1c(NC(=O)/C=C/c2ccc(OC)cc2)sc2c1CCC2 | inactive: 2.14% |
| COc1ccc(CNC(=O)CSc2ncc3c(n2)-c2cc(Cl)ccc2N(C)S3(=O)=O)cc1 | inactive: -10.6% |
| CCOC(=O)Cn1c(-c2cccs2)cc2cc(Cl)ccc21 | inactive: -21.8% |
| CC(C)c1cnc2c(c1SCC(=O)Nc1ccc(C(N)=O)cc1)c(=O)n(C)c(=O)n2C | inactive: 1.65% |
| CCN1C(=O)c2ccccc2Sc2ccc(NC(=O)c3cccc(C)c3)cc21 | inactive: -32.2% |
| Cc1ccc(NC(=O)Nc2cccs2)c(C)c1 | inactive: 2.15% |
| CN(CCCNC(=O)c1cc2c(=O)n(C)c3ccccc3c2s1)Cc1ccccc1 | inactive: 5.21% |
| O=C(Cn1c(=O)n(-c2ccccc2)c(=O)c2ccc(C(=O)NCc3ccc4c(c3)OCO4)cc21)Nc1ccc(F)c(Cl)c1 | inactive: -32.4% |
| CCOC(=O)c1cc(OC(=O)c2ccccc2OC)n(-c2ccccc2)n1 | inactive: -10.9% |
| COc1ccc(N(C(=O)c2cccc(C)c2)S(=O)(=O)c2ccc3c(c2)n(C)c(=O)n3C)cc1 | inactive: -2.75% |
| COc1ccc(CCNC(=O)c2ccc3c(c2)N(Cc2cccc(Cl)c2)C(=O)c2ccccc2S3=O)cc1OC (configuration not stated) | inactive: -7.32% |
| CCc1ccc(NC(=O)CN2C(=O)C3CCCN3c3ccc(S(=O)(=O)N(CC)CC)cc32)cc1 (configuration not stated) | inactive: -20.7% |
| COc1ccc(CCNc2ncnc3onc(-c4ccc(Cl)cc4)c23)c(OC)c1 | inactive: -28.5% |
| Cn1cc(S(=O)(=O)N2CCCCCC2)cc1C(=O)N1CCN(c2ccccc2F)CC1 | inactive: -20.2% |
| Cc1ccc(N(CC(O)Cn2c3ccccc3c3ccccc32)S(=O)(=O)c2ccc(F)cc2)cc1 (configuration not stated) | inactive: -54.7% |

| SMILES | activity change, positive = activation |
| --- | --- |
| CCC(Cc1c(I)cc(I)c(N)c1I)C(=O)O (configuration not stated) | inactive: -3.26% |
| Cc1ccccc1Nc1sc(C(=O)c2ccccc2)c(N)c1S(C)(=O)=O | inactive: -29% |
| CCc1ccc(NC(=O)Cn2c(=O)n(CCCC(=O)NCc3ccccc3Cl)c(=O)c3ccccc32)cc1 | inactive: -7.33% |
| Cc1cc(NC(=O)CSc2nc(-c3cccc(F)c3)nc3c2c(=O)n(C)c(=O)n3C)no1 | inactive: -5.46% |
| Cc1ccc(-c2nc3cc(NC(=O)Cc4ccc(Cl)cc4)ccc3o2)cc1 | inactive: 6.74% |
| COc1ccc2c(Sc3ccc(C)cc3)c(C(=O)NCC(C)c3ccccc3)[nH]c2c1 (configuration not stated) | inactive: 14.1% |
| CCOC(=O)c1ccc(N2CC3=C(C2=O)C(c2ccc(OC)cc2)NC(=O)N3C)cc1 (configuration not stated) | inactive: 1.57% |
| Nc1c(C(=O)Nc2ccc(C(F)(F)F)cc2)sc2nc(-c3cccs3)ccc12 | inactive: -8.96% |
| COc1ccccc1-c1nnc(C2CCN(S(=O)(=O)c3ccc(CC(C)C)cc3)CC2)o1 | inactive: -23.8% |
| O=C(CCc1ccccc1)NCc1ccc2c(c1)CCN2C(=O)c1ccccc1 | inactive: 12.9% |
| Cn1cc(C(=O)O)c(=O)c2cc(S(=O)(=O)N3CCOCC3)ccc21 | inactive: -26.8% |
| CC(=O)N1CCc2c(sc3c2c(=O)n(CCc2ccccc2)c(=O)n3CC(=O)Nc2ccccc2F)C1 | inactive: -22.5% |
| COc1ccccc1NC(=O)c1oc2ccccc2c1NC(=O)Cc1cccs1 | inactive: -6.77% |
| COc1cccc(NC(=O)Cn2c(=O)n(-c3ccccc3)c(=O)c3ccc(C(=O)NCc4ccc5c(c4)OCO5)cc32)c1 | inactive: -24.4% |
| COc1ccc(-n2c(SCC(=O)c3ccc(Cl)cc3)nc3c([nH]c4ccccc43)c2=O)cc1 | inactive: -0.121% |
| COc1ccccc1N1CCN(c2ccc(=O)n(CC(=O)Nc3cc(F)ccc3C)n2)CC1 | inactive: -15.1% |
| Cc1ccc2oc(=O)c3cc(C(=O)Nc4ccc(C)c(F)c4)sc3c2c1 | inactive: -8.43% |
| CCc1nnc(NC(=O)CSc2nc3c([nH]c4ccccc43)c(=O)n2-c2ccc(F)cc2)s1 | inactive: -19.4% |
| COc1ccccc1/C=C/c1onc(C)c1S(=O)(=O)N1CCC(C(=O)N2CCC(C)CC2)CC1 | inactive: -2.81% |
| Cc1c(Cl)cccc1NC(=O)c1cc(S(=O)(=O)N2CCCCC2)cn1C | inactive: -24.9% |
| Cc1cccn2c(=O)cc(COc3ccc(NC(=O)C(C)C)cc3)nc12 | inactive: -6.9% |
| Cc1ccc(-n2nc(C)c3c(C)cc(=O)n(CC(=O)Nc4cc(Cl)ccc4C)c32)cc1 | inactive: -7.78% |
| Nc1ccc2oc(-c3ccccc3Br)nc2c1 | inactive: -26% |
